# Test results as given in PubChem BioAssay AID485294 (National Center for Advancing Translational Sciences (NCATS), 2010).
# The whole screen tested about 370,000 compounds, of which about 150 (0.041%) were called active. The inconclusive results got no clear call from the source; some entries with a clear call stand among them for comparison. Calls follow the shape of the dose curve; as a rule, active = well fitted inhibition curve with a large enough effect; inconclusive = small, poorly fitted or top-dose-only effect; inactive = flat fitted curve, though single readings scatter. Potencies of inconclusive entries are left out as doubtful fits.
# Molecular target: Beta-lactamase (Escherichia coli (strain K12)) (UniProt P00811)
# Experiment: qHTS Inhibitors of AmpC Beta-Lactamase (assay with detergent); also: nearly all actives have a fitted effect of over 25% in size
# Details: AmpC hydrolysis of nitrocefin, absorbance 480 nm, 0.01% Triton; series mostly up to 114 µM
# Method in brief: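 20 mM phosphate pH 7.0 + 0.01% (detergent screen) or 0.0001% Triton X-100; 5.3 nM AmpC reagent; cpd preinc 15 min RT; nitrocefin (800 uM stock) to start; A480 q20 s × 4 min; Activity was normalised to no-enzyme and no-compound control wells.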
# Potency is read from the fitted curve at half-maximal effect; tags tell the direction and shape of the fitted curve.
# UniProt P00811, sequence (P00811 whole entry, looked up): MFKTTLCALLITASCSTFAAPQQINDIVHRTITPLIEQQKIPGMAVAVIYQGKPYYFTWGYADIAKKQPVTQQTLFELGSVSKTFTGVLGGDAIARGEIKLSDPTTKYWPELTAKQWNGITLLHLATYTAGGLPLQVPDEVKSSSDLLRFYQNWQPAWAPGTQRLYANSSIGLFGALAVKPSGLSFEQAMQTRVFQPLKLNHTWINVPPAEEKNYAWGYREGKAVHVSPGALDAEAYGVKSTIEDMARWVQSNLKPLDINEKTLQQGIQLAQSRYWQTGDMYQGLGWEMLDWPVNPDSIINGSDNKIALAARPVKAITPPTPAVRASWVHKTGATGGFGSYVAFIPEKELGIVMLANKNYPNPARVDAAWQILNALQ
row,SMILES,Potency
1,Cc1cc(C)nc(SC2c3cccc4cccc(c34)C2NS(=O)(=O)c2ccccc2)n1 (stereo not given),"inconclusive [inhibitor, partial curve, poor fit]"
2,COC(CN(C(=O)CCl)C(C(=O)NC1CCCCC1)c1ccccc1C)OC (stereo not given),inactive
3,CC(=O)Nc1ccc(NC(=O)C2CC(=O)N(c3cccc(Cl)c3)C2)cc1 (stereo not given),"inconclusive [inhibitor, full curve]"
4,COc1cccc(-c2ccc(SCC(=O)N3CCc4ccccc43)nn2)c1,"inconclusive [inhibitor, single point]"
5,CC1CCN(CCCn2c(SCC(=O)Nc3ccccc3Cl)nc3ccccc3c2=O)CC1,inactive
6,O=C(CNCCC1=CCCCC1)Nc1ccccc1N1CCCCCC1,"inconclusive [inhibitor, full curve]"
7,COc1ccc(C(=O)NCCn2nc(C)cc2C)cc1OC1CCN(C(C)=O)CC1,"inconclusive [inhibitor, single point]"
8,N#Cc1cccc(C(=O)Nc2cccc(S(=O)(=O)N3CCCC3)c2)c1,inactive
9,COc1ccccc1C1C(C(=O)Nc2ccccc2)=C(C)Nc2nc(-c3ccccc3)nn21 (stereo not given),inactive
10,Cc1noc(C)c1COc1ccc(C(=O)NCCc2ccc(S(N)(=O)=O)cc2)cc1,"inconclusive [inhibitor, partial curve, poor fit]"
11,CCc1c(-c2ccccc2)nc(N)c(C#N)c1-c1cccs1,"inconclusive [inhibitor, partial curve]"
12,COc1cccc(NC(=O)CN(C)C(=O)CNC(=O)c2ccc3ccccc3c2)c1,"inconclusive [inhibitor, full curve]"
13,Cc1nn(C)c(C(=O)NNC(=S)NCc2ccco2)c1Cl,"inconclusive [inhibitor, full curve]"
14,CCOc1ccc(NC(=O)CC2SC(N)=NC2=O)c([N+](=O)[O-])c1 (stereo not given),inactive
15,COc1ccc(S(=O)(=O)Nc2nnc(Cc3ccc(OC)c(OC)c3)s2)cc1,inactive
16,Cc1[nH]c2ccccc2c1Cc1nnc(SCC(=O)NCc2ccco2)o1,"inconclusive [inhibitor, full curve]"
17,CNC(=O)c1cc2cc(OC)ccc2oc1=O,"inconclusive [inhibitor, full curve, poor fit]"
18,O=C(CSc1nccn1-c1ncc(C(F)(F)F)cc1Cl)c1ccc(Br)cc1,"inconclusive [inhibitor, partial curve, poor fit]"
19,Cc1ccc(CC2CC(=O)N(c3ccncc3)C2=O)cc1 (stereo not given),"inconclusive [inhibitor, partial curve, poor fit]"
20,CCc1nc(SCC(=O)c2cccs2)c2oc3ccccc3c2n1,"inconclusive [inhibitor, full curve, poor fit]"
21,CC(=O)Nc1ccc(S(=O)(=O)NCC2CCC(C(=O)NCCC3=CCCCC3)CC2)cc1 (stereo not given),"inconclusive [inhibitor, full curve, poor fit]"
22,O=C(CCC(=O)N1CCSc2ccccc21)NCCc1ccccc1,"inconclusive [inhibitor, full curve, poor fit]"
23,COc1ccc(Cl)cc1C(=O)CSc1nc(N)cc(N)n1,"inconclusive [inhibitor, partial curve]"
24,O=C(CCC1CCCC1)NCCS(=O)(=O)N1CCN(c2ccccc2)CC1,"inconclusive [inhibitor, single point]"

row,SMILES,Potency
1,NNc1ccc(Cc2ccc(Cl)cc2Cl)nn1,inactive
2,CC(=O)Nc1ccc(NC(=O)C(C)OC(=O)c2cccc(S(=O)(=O)N3CCCCCC3)c2)cc1 (stereo not given),"inconclusive [inhibitor, single point]"
3,O=C(Nc1ccccc1C(=O)Nc1ccc2c(c1)OCO2)c1cccs1,inactive
4,Cc1sc2ncnc(SCC(=O)NC(=O)NCc3ccco3)c2c1C,"inconclusive [inhibitor, full curve, poor fit]"
5,COc1cccc(OCCNC(=O)Nc2cc(F)c(F)cc2Cl)c1,"inconclusive [inhibitor, single point]"
6,CC1CN(C(=O)N2CCC(C(=O)NCc3ccco3)CC2)c2ccccc2O1 (stereo not given),inactive
7,Cn1c(CSCc2ccc(Cl)c(Cl)c2)n[nH]c1=S,"inconclusive [inhibitor, partial curve]"
8,Cc1c(C(=O)Nc2cccc(C#N)c2)sc2nc3n(c(=O)c12)CCCCC3,inactive
9,Cn1c(N2CCCC2)nc2c1c(=O)n(Cc1ccc(F)cc1)c(=O)n2C,"inconclusive [inhibitor, partial curve, poor fit]"
10,O=C(O)CSc1c2c(nc3cc(C(=O)Nc4cccc(C(F)(F)F)c4)ccc13)CCCC2,"inconclusive [inhibitor, full curve, poor fit]"
11,CC(C)CN(C(=O)COC(=O)C1CC1)c1c(N)n(Cc2ccccc2)c(=O)[nH]c1=O,"inconclusive [inhibitor, single point]"
12,CC(/C=N/NC(=O)c1cc(-c2ccc(C)o2)[nH]n1)=C\c1ccccc1,inactive
13,CCOc1ccccc1NC(=O)Nc1ccsc1C(=O)OC,inactive
14,COc1cc(C(=O)Nc2ccc(NC(=O)C3CCCCC3)nc2)cc(OC)c1OC,inactive
15,CN(CC(=O)Nc1ccc(N2CCOCC2)cc1)C(=O)CCc1cc(C(C)(C)C)c(O)c(C(C)(C)C)c1,inactive
16,COCCNC(=O)/C(C#N)=C/c1ccc(C(=O)O)cc1,"inconclusive [inhibitor, full curve, poor fit]"
17,COc1c(Cl)cc(Cl)cc1C(=O)Nc1ccc(NC(C)=O)cc1,"inconclusive [inhibitor, single point]"
18,CCOCCCn1cnc2c([nH]c3cc(OC)ccc32)c1=O,inactive
19,CCOc1ccc(C(C(=O)NC2CCCCC2)N(C(=O)c2ccccn2)c2cccnc2)cc1 (stereo not given),inactive
20,O=C(NCc1ccccc1)c1ccc2c(c1)N(Cc1ccc(F)cc1)CCS2,inactive
21,O=C(NNc1nc2c(F)cccc2s1)c1ccccc1,inactive
22,CCN(Cc1ccccc1OC)CC1CCCN(CCc2cccc(OC)c2)C1 (stereo not given),inactive
23,N/C(COc1ccccc1)=N\NC(=O)c1cccnc1Oc1ccccc1,"inconclusive [inhibitor, partial curve, poor fit]"
24,CN1CCN(c2ncc(CN3C(=O)c4ccccc4C3=O)s2)CC1,"inconclusive [inhibitor, partial curve, poor fit]"

row,SMILES,Potency
1,CCc1cccc(CC)c1NC(=O)CSc1nc2ccc(N3C(=O)C4C(C3=O)[C@H]3C=C[C@@H]4C3)cc2s1 (stereo not given in full),"inconclusive [inhibitor, full curve, poor fit]"
2,COc1cc2ccc(=O)oc2c(O)c1OCC=C(C)C,"inconclusive [inhibitor, full curve]"
3,CC(=O)N1c2ccc(S(=O)(=O)NCC3CCC(C(=O)NCc4ccccc4)CC3)cc2CC1C (stereo not given),inactive
4,CCC(=O)c1cc2c(C)cc(=O)oc2c(C)c1OC(C)=O,"inconclusive [inhibitor, partial curve, poor fit]"
5,Cc1cccc2c(SCC(=O)NCC3CCCO3)nc(-c3ccc(F)cc3)nc12 (stereo not given),inactive
6,CC12CN3CC(C)(CN(C1)C3c1cc3ccccc3[nH]1)C2=O (stereo not given),"inconclusive [inhibitor, full curve, poor fit]"
7,CCOc1cccc(-c2nnc3sc(-c4cc(OC)c(OC)cc4OC)nn23)c1,"inconclusive [inhibitor, partial curve]"
8,O=C(Nc1nc2ccc(S(=O)(=O)N3CCCC3)cc2s1)c1cccs1,inactive
9,CCc1ccc(NC(=O)C2CCN(S(=O)(=O)c3c(C)noc3C)CC2)cc1,inactive
10,O=C(Cc1cccs1)N(CC1CCCO1)C1(C(=O)NC2CCCC2)CCCCC1 (stereo not given),"inconclusive [inhibitor, single point]"
11,CCCCOc1ccc(OCCCN2CCOCC2)cc1,"inconclusive [inhibitor, partial curve, poor fit]"
12,CCSc1ccc(-c2ccc(C)cc2)nn1,"inconclusive [inhibitor, partial curve, poor fit]"
13,CCn1c2ccccc2c2nnc(SCC(=O)c3ccccc3)nc21,"inconclusive [inhibitor, single point]"
14,CC(=O)Nc1cccc(C(=O)/C=C/c2cccs2)c1,"inconclusive [inhibitor, single point]"
15,CC(C)(C)c1cc(Cc2ccccc2)[nH]n1,"inconclusive [inhibitor, full curve]"
16,CCCOc1ccc2nc(NC(=O)OC)[nH]c2c1,"inconclusive [inhibitor, partial curve, poor fit]"
17,CCn1c(=O)c2sccc2n(CC(=O)NCCC2=CCCCC2)c1=O,inactive
18,C=CCNC(=O)c1ccccc1Cl,inactive
19,CC(C)c1nc(SCC(=O)N2CCCc3ccccc32)c2c(=O)n(C)c(=O)n(C)c2n1,"inconclusive [inhibitor, full curve, poor fit]"
20,CC(=O)n1ccnc1,"inconclusive [inhibitor, partial curve, poor fit]"
21,Cn1c2ccccc2c2n[nH]c(=S)nc21,"inconclusive [inhibitor, partial curve, poor fit]"
22,CCCNC(=O)CN(c1ccc(F)c(Cl)c1)S(C)(=O)=O,"inconclusive [inhibitor, single point]"
